Measured values as given in patent publication US4900757A, “Hypocholesterolemic and antiatherosclerotic uses of bix(3,5-di-tertiary-butyl-4-hydroxyphenylthio)methane” (Merrell Dow Pharmaceuticals Inc., priority 1988, dated 1990).

Test system: human LDL
Assay: Inhibition of LDL peroxidation (cupric sulfate, thiobarbituric acid assay; Example 3)
Details: 0.5 ml solution with 250 μg LDL; 30 min at 42° C; then cupric sulfate 12.5 μM, 37° C, 2.5 hours

SMILES	ID50 (dose required to inhibit 50% of LDL peroxidation) [µg]
CC(C)(C)c1cc(SCSc2cc(C(C)(C)C)c(O)c(C(C)(C)C)c2)cc(C(C)(C)C)c1O	6
CC(C)(Sc1cc(C(C)(C)C)c(O)c(C(C)(C)C)c1)Sc1cc(C(C)(C)C)c(O)c(C(C)(C)C)c1 [Probucol, 2,2'-bis(3,5-di-tertiary-butyl-4-hydroxyphenylthio)propane, reference compound]	12.5
